This note sets out measurements from the supplement of paper PMC11417369.

The other results are listed elsewhere or left out.

The assay relates to PfHDP1 homeodomain (GST-tagged). The experiment in a line: gcPBM binding intensity (ln(normalized median fluorescence intensity)); higher = stronger DNA binding. An outline of the steps: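 Plasmodium falciparum DNA-binding domains carrying a GST tag were expressed in E. coli and applied for 1 h, at about 25 μg on average, to an Agilent 4 × 180k array. The array held primer-extended double-stranded 36-bp intergenic genomic probes together with negative controls, and binding took place in 1× PBS with 1% milk, 0.2 mg/ml BSA, 0.5% salmon testes DNA and 0.03% Triton X-100. An Alexa488 anti-GST antibody detected bound protein, and the array was scanned at 488 nm. Binding intensity is taken as the highest Masliner-normalised natural-log median intensity across replicate spots of either probe orientation.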
Take “TTTTGTTGTATGATAATTCTTTTATCAATATGTCTT [TGCATGCA_negctrl_site567]”: the “gcPBM binding intensity (ln)” value stood at 6.14.

With “TAATTTTTTTTTTTTTTTCATTCTTTTCCTTTGATT [CACACA_negctrl_site1365]”, the “gcPBM binding intensity (ln)” value amounted to 5.93.

Turning to “TTTATATAATTTTTTTGTACATATATATGAATACAT [XGTACX_site2316]”, the “gcPBM binding intensity (ln)” value amounted to 6.7.

Regarding “ATAGTACAACAGGTTCTTGACAAACAATATGAATGT [GTGCAC_negctrl_site442]”, the “gcPBM binding intensity (ln)” value came to 6.39.

Take “ATATACTCATTTAATACACACAAAGAGAAAATTAAT [CACACA_site1923]”: the “gcPBM binding intensity (ln)” value amounted to 6.73.

As to ATATATATATATATGGTGCATGAAAATTTACTTTGA, the “gcPBM binding intensity (ln)” value was found to be 9.67.

Regarding “GATATTTGTTCATATACACACTTTTGATAAAATATG [CACACA_site4807]”, the “gcPBM binding intensity (ln)” value came to 6.66.

In the case of “TATATTTTCCTGCAAACACACATATAAATGGGTAGA [CACACA_site4451]”, the “gcPBM binding intensity (ln)” value worked out at 6.51.

For “TTTTTTTTTTTTGGTAGTACATAATATTAATATAAT [XGTACX_site4422]”, the “gcPBM binding intensity (ln)” value is 6.33.

Consider “CCCCTTGTGGATTCTACACACAAAAAGTCGTCAAAA [CACACA_site821]”, for which the “gcPBM binding intensity (ln)” value amounted to 6.35.

For “GAATTCCTTTGTGTATGTACATAATGATATTATTTT [XGTACX_site7369]”, the “gcPBM binding intensity (ln)” value is 6.64.

Consider “TGATCAAATAAGTTTGCATGTCAACAATGCATATAT [TGCATGCA_site1025]”, for which the “gcPBM binding intensity (ln)” value is 6.73.

Take “TAATTTTTTAAACACACACACATATATATATATATA [CACACA_site4230]”: the “gcPBM binding intensity (ln)” value was found to be 9.46.

As to “TACTTTTATAAAAATTTTATCAAATTCTATATATGT [TGCATGCA_negctrl_site308]”, the “gcPBM binding intensity (ln)” value was determined as 6.31.

For the sequence “TTTTAAATTTAGTGTAGTACACTTTTTTCAAATATA [XGTACX_site4659]”, the “gcPBM binding intensity (ln)” value came out at 6.54.

Turning to “ATATAATTCAAATACAGTACATATACAATATATACA [XGTACX_site1191]”, the “gcPBM binding intensity (ln)” value is 6.26.

For the sequence “ATATTATCATTTTTTTTAATGGAAAAAAAAAAAAAA [CACACA_negctrl_site1298]”, the “gcPBM binding intensity (ln)” value was 6.41.

For “ATATATATAAAAGAAACAACATTTATTCAAAAGGTA [CACACA_negctrl_site749]”, the “gcPBM binding intensity (ln)” value stood at 6.2.

On to “TTATTCTTTTAATATACACACTTTGTCTTTTCGCGC [CACACA_site5525]”, for which the “gcPBM binding intensity (ln)” value was 6.7.

On to “TACATATTTATATACACACACACACGGATATTTATA [CACACA_site7239]”, for which the “gcPBM binding intensity (ln)” value was 7.05.

With “ATTCAAAAGATGTATACACACATGTGGATAATATAA [CACACA_site2443]”, the “gcPBM binding intensity (ln)” value was 7.19.

Consider “GCACCCTGTATGAATGCACACATTCATAGAATTGCT [CACACA_site5475]”, for which the “gcPBM binding intensity (ln)” value came to 9.43.

Regarding “AATAACAAAATAGGCACACGCACATATATATATATA [CACACA_site1497]”, the “gcPBM binding intensity (ln)” value was 9.35.

With “TATTTTTCTTTTTAAAAATATATCACATGAACATTA [XGTACX_negctrl_site183]”, the “gcPBM binding intensity (ln)” value came out at 6.12.

On to “ACATATAAGATTATGTGTCCACAAAAAAATAAAACA [XGTACX_site2867]”, for which the “gcPBM binding intensity (ln)” value amounted to 6.61.

Take “TTTTATGTTCTTAATGCACACTTATAAGTATCTTAT [CACACA_site4895]”: the “gcPBM binding intensity (ln)” value was 10.6.

Take “TTTTTTTATTATTCTTATATAAAAATTTTTTTTAAT [CACACA_negctrl_site159]”: the “gcPBM binding intensity (ln)” value is 6.12.

For “TTTTTAATAACACTTTTGAAAAATAAAATAAAATAA [CACACA_negctrl_site821]”, the “gcPBM binding intensity (ln)” value was 6.23.

In the case of “CATATCTCAATTTATGCATGCAGGATTTTTCTAATA [TGCATGCA_site516]”, the “gcPBM binding intensity (ln)” value was found to be 6.58.

With “ACACAAAAAAAAAAAAAAAAAAAAAAAAAAAAGGAA [CACACA_negctrl_site1162]”, the “gcPBM binding intensity (ln)” value was 5.78.

With “AATATGTACAGACATACACACATATATATATATATA [CACACA_site1222]”, the “gcPBM binding intensity (ln)” value turned out to be 9.32.

Consider “TTTTTTTTTTTTTGGTGTACATTTATAAAAAAAAAA [XGTACX_site8368]”, for which the “gcPBM binding intensity (ln)” value amounted to 6.42.

For the sequence “AATAATATAACAGAACAAAACTAAATATACACATAT [TGCATGCA_negctrl_site31]”, the “gcPBM binding intensity (ln)” value was 6.81.

Regarding “TATTTCATAATAAATTGTACGCGTAGAAAACCATGA [XGTACX_site7506]”, the “gcPBM binding intensity (ln)” value amounted to 7.3.

Regarding “AAAAAAAAAAAAAACACACACACACGCATACAAAAT [CACACA_site6794]”, the “gcPBM binding intensity (ln)” value worked out at 6.83.

For the sequence “ATATTTTTCTTAAGTACACACTAAATAGAAACTAAA [CACACA_site4191]”, the “gcPBM binding intensity (ln)” value is 6.45.

On to “ATTAATTATATAATATGTACATATTACAAATATATA [XGTACX_site1478]”, for which the “gcPBM binding intensity (ln)” value was 6.55.

In the case of “TTATATCTTATAAAATGTACATAAAATATATAATAT [XGTACX_site7647]”, the “gcPBM binding intensity (ln)” value turned out to be 6.4.

Regarding “AACACTTCATACACGTGTACAAATATAATATAGACA [XGTACX_site5671]”, the “gcPBM binding intensity (ln)” value stood at 7.02.

Turning to “GGAAATAATATTATTACACACCAAAATGTATAAAAA [CACACA_site4036]”, the “gcPBM binding intensity (ln)” value amounted to 6.28.

As for “AAAATATTCACGTGTACATATATATATATATATTAT [TGCATGCA_negctrl_site192]”, the “gcPBM binding intensity (ln)” value amounted to 6.96.

As to “CTAATTAATGGGTACATACACACATATATACATACA [CACACA_site743]”, the “gcPBM binding intensity (ln)” value was determined as 6.55.

Consider “ATATTAAAATTAAACGCATGCATATATTATAAAAGA [TGCATGCA_site231]”, for which the “gcPBM binding intensity (ln)” value worked out at 6.85.

For “TTCTGTATAACACAAATTTTTTTTTATTCACTCTGT [TGCATGCA_negctrl_site410]”, the “gcPBM binding intensity (ln)” value was found to be 6.41.
